{
  "source": "PubChem BioAssay AID686979",
  "about": "(National Center for Advancing Translational Sciences (NCATS), 2013)",
  "note": "Where “and” joins values, the source holds several entries; their conditions need not be identical. Equal values may be shown once. Screen size: about 420,000 compounds; about 50,000 (12%) were called active. The inconclusive results got no clear call from the source; some entries with a clear call stand among them for comparison. Calls come from the whole dose curve; as a rule, active = well fitted inhibition curve with a large enough effect; inconclusive = small, poorly fitted or top-dose-only effect; inactive = flat fitted curve, though single readings scatter. Potencies of inconclusive entries are doubtful fits and often do not repeat. % is set by controls: 0 for no effect and ±100 for the full control effect; potency is the fitted concentration of half-maximal effect; tags give direction and shape of the fitted curve.",
  "data": [
    {"assay": "qHTS for Inhibitors of human tyrosyl-DNA phosphodiesterase 1 (TDP1): qHTS in cells in presence of CPT; note: nearly all actives have a fitted effect of over 55% in size", "conditions": "chicken DT40 Tdp1-/-;hTDP1 cells + 20 nM CPT, ATP luminescence, 48 h; activity change, negative = growth inhibition: at 46.2 µM (top of the series) unless noted", "how_it_was_run": "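Cell growth measured by CellTiter-Glo luminescence after a minimum 48 h, 37 C compound exposure with 20 nM CPT in Tdp1-knockout DT40 cells stably expressing hTDP1, seeded 400/well; qHTS titration format.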", "values": [
      {"smiles": "CCN(CC)S(=O)(=O)c1ccc2oc(C(=O)Nc3ccc(OC)cc3OC)c(C)c2c1", "Potency": "active: 18.4 µM"},
      {"smiles": "CSc1ncc(C(=O)Nc2ccc(C(C)=O)cc2)c(-c2ccccc2)n1", "Potency": "inactive and inconclusive: 29.1 µM [inhibitor, single point]"},
      {"smiles": "Cc1ccc(OCC(=O)Nc2nc(-c3ccccn3)cs2)c(C)c1", "Potency": "inconclusive: 20.6 µM [inhibitor, single point]"},
      {"smiles": "C=CCn1c(SCC(=O)N2CCOCC2)nc2sc(CC)cc2c1=O", "Potency": "inconclusive: 29.1 µM [inhibitor, single point]"},
      {"smiles": "CC(C)C(=O)Nc1nnc(S(=O)(=O)N2CCCc3ccccc32)s1", "Potency": "inactive"},
      {"smiles": "Cc1cccc(NC(=O)c2ccc(N(C)C3CCCCC3)c([N+](=O)[O-])c2)n1", "Potency": "active: 20.6 µM"},
      {"smiles": "CCC(Sc1nc2n[nH]c(C)c2c(=N)n1-c1ccc(C)c(Cl)c1)C(=O)N1CCOCC1", "note": "(stereo not drawn)", "Potency": "inconclusive: 18.4 µM [inhibitor, single point]"},
      {"smiles": "Cc1ccc(C2=NN(C(=O)CSc3nc(N)cc(N)n3)C(c3ccco3)C2)cc1", "note": "(stereo not drawn)", "activity change, negative = growth inhibition": "inconclusive: -31.6% [inhibitor]"},
      {"smiles": "COc1ccc(CCNc2ccc(C(CC(N)=O)NC(=O)c3ccc(Br)cc3)cc2[N+](=O)[O-])cc1", "note": "(stereo not drawn)", "Potency": "active: 23.1 µM"},
      {"smiles": "Cn1c(=O)c2c(ncn2CC(=O)N2CCc3ccccc3C2)n(C)c1=O", "Potency": "inactive"},
      {"smiles": "CCc1ccc2[nH]c(=O)c(CN(CCN(CC)CC)C(=O)NC3CCCCC3)cc2c1", "Potency": "active: 14.6 µM"},
      {"smiles": "COc1ccc(CN(C)C(=O)c2ccc(COc3ccccc3)cc2)c(OC)c1", "Potency": "active: 18.4 µM"},
      {"smiles": "COc1ccc(-c2nnc(-c3ccc(N)cc3)o2)cc1", "Potency": "inactive"},
      {"smiles": "CCOC(=O)[C@]12CCC=C1N(Cc1ccc(Cl)cc1Cl)C(=O)[C@H](CC(=O)NCC1CCCCC1)C2", "Potency": "inconclusive: 29.1 µM [inhibitor, single point]"},
      {"smiles": "CCCc1cc(=O)[nH]c(SCC(=O)N(C)C2CCCCC2)n1", "Potency": "inactive"},
      {"smiles": "CC(CN1CCCCC1)OC(=O)COc1ccc(Cl)cc1", "note": "(stereo not drawn)", "Potency": "inconclusive: 23.1 µM [inhibitor, single point]"},
      {"smiles": "Cc1ccccc1C(=O)NNC(=S)Nc1cccc(C(F)(F)F)c1", "Potency": "inconclusive: 29.1 µM [inhibitor, single point]"},
      {"smiles": "COc1ccc(NC(=O)COc2ccccc2)cc1NC(=O)c1ccco1", "Potency": "inconclusive: 23.1 µM [inhibitor, single point]"},
      {"smiles": "COC(=O)c1cccc(NC(=O)CCc2ccccc2)c1", "Potency": "inactive"},
      {"smiles": "CCOC(=O)C1CCCN(C2=NC(=O)/C(=C/c3ccc(OC)cc3OC)S2)C1", "note": "(stereo not drawn)", "Potency": "inconclusive: 23.1 µM [inhibitor, single point]"},
      {"smiles": "O=C(c1ccco1)N(Cc1cccc(Cl)c1)C1CCS(=O)(=O)C1", "note": "(stereo not drawn)", "Potency": "inactive"},
      {"smiles": "O=C(NCc1nnc(SCc2ccc(C(F)(F)F)cc2)n1-c1ccccc1)C12CC3CC(CC(C3)C1)C2", "Potency": "inconclusive: 20.6 µM [inhibitor, single point]"},
      {"smiles": "COc1ccc(F)c(CN2CCC3(CCC(CNC(=O)c4ccn(C)n4)O3)CC2)c1", "note": "(stereo not drawn)", "Potency": "inactive"},
      {"smiles": "CSc1nnc2[nH]c(=O)cc(C)n12", "Potency": "inactive"},
      {"smiles": "CSc1ccccc1NC(=O)CN(C)C(=O)Cc1c(F)cccc1Cl", "Potency": "inactive"},
      {"smiles": "Cc1csc(N2CCc3ccccc32)n1", "Potency": "inactive"},
      {"smiles": "COc1ccccc1NC(=O)c1cc(Cl)nnc1Cl", "Potency": "inactive"},
      {"smiles": "O=C(CCNS(=O)(=O)c1ccc(Br)cc1)NCCc1ccc(Cl)cc1", "Potency": "inconclusive: 23.1 µM [inhibitor, single point]"},
      {"smiles": "O=C(Nc1cc(Cl)ccc1N1CCOCC1)c1ccc(N2CCCCC2)c([N+](=O)[O-])c1", "activity change, negative = growth inhibition": "inconclusive: -30.2% [inhibitor]"},
      {"smiles": "COc1ccc(C(CNC(=O)c2cc(=O)[nH]c3ccccc23)N2CCCC2)cc1", "note": "(stereo not drawn)", "Potency": "inactive"},
      {"smiles": "CCCCn1nnnc1C(c1ccccc1)N1CCN(c2ccc(OC)cc2)CC1", "note": "(stereo not drawn)", "Potency": "inconclusive: 29.1 µM [inhibitor, single point]"},
      {"smiles": "CC(C)CC(NC(=O)C1CCC(C)CC1)C(=O)NCc1ccccn1", "note": "(stereo not drawn)", "Potency": "inactive"},
      {"smiles": "CCOc1ccc2oc(=O)cc(CN3CCN(c4ccccc4)CC3)c2c1", "Potency": "inconclusive: 13 µM [inhibitor, single point]"},
      {"smiles": "N#Cc1c[nH]n2c(NC3CCCCC3)c(-c3cccc(Cl)c3)nc12", "Potency": "inconclusive: 25.9 µM [inhibitor, single point]"},
      {"smiles": "COc1ccc(N=Nc2cc(C)c(O)c(CN3CCCCC3)c2)cc1", "activity change, negative = growth inhibition": "inconclusive: -30.3% [inhibitor]"},
      {"smiles": "COc1ccc(N2C(=O)/C(=C\\c3ccco3)N=C2SCC(=O)N(C(C)C)C(C)C)cc1Cl", "Potency": "active: 16.4 µM"},
      {"smiles": "COCCSc1nnc(NC(=O)CCS(=O)(=O)c2ccccc2)s1", "Potency": "active: 7.31 µM"},
      {"smiles": "Cc1cc(NC(=O)CSc2nc3ccccc3c(=O)n2C2CCCC2)no1", "Potency": "active: 1.03 µM"},
      {"smiles": "Cc1cnc(C(=O)Nc2cccc3cccnc23)cn1", "Potency": "active: 0.0073 µM"},
      {"smiles": "OC(Cc1cccc(Br)c1)c1ncc(-c2ccccc2C(F)(F)F)[nH]1", "note": "(stereo not drawn)", "Potency": "inconclusive: 29.1 µM [inhibitor, single point]"},
      {"smiles": "O=c1c(S(=O)(=O)c2ccc(Cl)cc2)cn(Cc2ccccc2F)c2ccc(F)cc12", "Potency": "inconclusive: 23.1 µM [inhibitor, single point]"},
      {"smiles": "O=C(Nc1ccc(F)cc1)Nc1ccccc1F", "Potency": "inconclusive: 16.4 µM [inhibitor, single point]"},
      {"smiles": "CCc1ccc(NC(=O)c2cc3c([nH]c2=O)CC(C)(C)CC3=O)cc1", "Potency": "inactive"},
      {"smiles": "COc1ccc(C(=O)N/N=C/c2ccc(OC)c(CN3CCN(c4ccc(F)cc4)CC3)c2)cc1", "Potency": "inconclusive: 29.1 µM [inhibitor, single point]"},
      {"smiles": "CCc1nc2ccc(C(=O)Nc3cc(-c4ccccc4)ccc3OC)cn2c1N(CC)CC(=O)N(C)C", "Potency": "active: 14.6 µM"},
      {"smiles": "COc1ccc(CCN2C(=O)N(c3ccccc3)C(=O)C2CC(=O)Nc2ccccc2)cc1", "note": "(stereo not drawn)", "Potency": "inconclusive: 14.6 µM [inhibitor, partial curve]"},
      {"smiles": "CC(=O)NC1(C(=O)O)CCCC1", "Potency": "inactive"},
      {"smiles": "CSc1ccc(NC(=O)C2(C)CCN2C(=O)c2ccccc2CCc2ccccc2)cc1", "note": "(stereo not drawn)", "Potency": "inconclusive: 25.9 µM [inhibitor, single point]"}
    ]}
  ]
}
